This is one part of the list.

For one test, the system named is HSkMC. Kind of test: cytotoxicity call (relative viability < 0.9). The note with it: 10 µM.
The next test has as its system HepG2. Kind of test: cytotoxicity call (relative viability < 0.9). The note with it: 10 µM.
The test system of another test is S. aureus RN4220. The experiment in a line: growth inhibition call (relative growth <= 0.2). The note with it: 50 µM.

On to `[N-]=[N+]=NCc1ccccc1C[C@]1(C(=O)NCc2ccccc2)N=C(c2ccc(OCCCO)cc2)O[C@H]1c1ccccc1`, for which, in the test on HSkMC, the cytotoxicity call was “inactive”. For the same compound, the cytotoxicity call with HepG2 was “active”. In addition, the growth inhibition call in the test on S. aureus RN4220 was “inactive”.
As to `CC(C)Cn1cnc2c1c(=O)n(C)c(=O)n2C`, the cytotoxicity call in the test with HSkMC and in the test with HepG2 was “inactive” each time. Moreover, in the test with S. aureus RN4220, the growth inhibition call is “inactive”.
Regarding `COc1cccc(S(=O)(=O)Nc2ccc3c(c2)OC[C@H](C)N(C(=O)Cc2cccnc2)C[C@H](C)[C@@H](OC)CN(C)C3=O)c1`, the cytotoxicity call in the test on HSkMC and in the test with HepG2 was “inactive” throughout. The growth inhibition call in the test on S. aureus RN4220 was “inactive”.
Turning to `N[C@@H](CS(=O)O)C(=O)O`, the cytotoxicity call with HSkMC and in the test on HepG2 was “inactive” each time. Also, the growth inhibition call with S. aureus RN4220 was “inactive”.
For the compound `COC(=O)Cc1csc(CC(N)=O)n1`, the cytotoxicity call with HSkMC is “inactive”. Moreover, the cytotoxicity call in the test on HepG2 was “active”. For the same compound, the growth inhibition call with S. aureus RN4220 is “inactive”.
Consider `O=C(C[C@H]1CC[C@@H](NC(=O)CN2CCOCC2)[C@@H](CO)O1)NCc1cccc(F)c1`, for which the cytotoxicity call in the test on HSkMC and in the test with HepG2 was “inactive” in each case. For the same compound, the growth inhibition call in the test on S. aureus RN4220 is “inactive”.
Regarding `COC(=O)C[C@@H]1C(C)(C)[C@H](OC(C)=O)[C@@H]2[C@@H](OC(C)=O)[C@]34O[C@@]2(O)[C@]1(C)[C@H]3CC[C@]1(C)C4=CC(=O)O[C@H]1c1ccoc1`, the cytotoxicity call in the test on HSkMC and in the test with HepG2 was “inactive” throughout. Besides, in the test on S. aureus RN4220, the growth inhibition call is “inactive”.
For `C[C@@H]1CN([C@@H](C)CO)C(=O)c2cccc(NC(=O)Nc3cccc4ccccc34)c2O[C@@H]1CN(C)Cc1ccc(Cl)c(Cl)c1`, the cytotoxicity call in the test with HSkMC and in the test with HepG2 was “inactive” each time. The growth inhibition call with S. aureus RN4220 was “inactive”.
On to `O=C(C[C@@H]1C[C@H]2c3cc(NC(=O)Cc4ccncc4)ccc3O[C@H]2[C@@H](CO)O1)NCCN1CCCCC1`, for which the cytotoxicity call in the test with HSkMC and in the test with HepG2 was “inactive” in each case. In addition, the growth inhibition call in the test on S. aureus RN4220 is “inactive”.
Take `CCN1[C@H](C(=O)NCCc2cn(C)cn2)[C@@H](CO)[C@@H]2Cn3c(ccc(-c4ccncc4)c3=O)[C@@H]21`: the cytotoxicity call in the test on HSkMC and in the test with HepG2 was “inactive” in each case. Further, the growth inhibition call with S. aureus RN4220 was “inactive”.
Take `CCS(=O)(=O)Nc1ccc2c(c1)C(=O)N(C)C[C@@H](OC)[C@H](C)CN(C(=O)c1ccc3c(c1)OCO3)[C@@H](C)CO2`: the cytotoxicity call with HSkMC and in the test with HepG2 was “inactive” each time. In addition, the growth inhibition call with S. aureus RN4220 was “inactive”.
Regarding `CC(C)=C[C@H]1[C@@H](c2nc3cc(Br)ccc3o2)C1(C)C`, the cytotoxicity call in the test on HSkMC and in the test on HepG2 was “inactive” throughout. In addition, the growth inhibition call in the test on S. aureus RN4220 was “inactive”.
In the case of `CC(=O)N(C)C[C@H]1Oc2ncc(C#CC(C)(C)O)cc2C(=O)N([C@H](C)CO)C[C@H]1C`, the cytotoxicity call with HSkMC and with HepG2 was “inactive” in each case. Moreover, the growth inhibition call with S. aureus RN4220 is “inactive”.
As to `C[C@@H]1CN([C@H](C)CO)C(=O)c2cccc(NC(=O)Nc3ccc(F)cc3)c2O[C@H]1CN(C)Cc1ccc(C(=O)Nc2ccccc2N)cc1`, the cytotoxicity call in the test with HSkMC and in the test on HepG2 was “inactive” in each case. For the same compound, the growth inhibition call in the test with S. aureus RN4220 is “inactive”.
In the case of `C[C@@H]1CN([C@@H](C)CO)C(=O)c2cc(C#Cc3ccccc3F)cnc2O[C@@H]1CN(C)C(=O)c1ccc2c(c1)OCO2`, the cytotoxicity call in the test with HSkMC and in the test with HepG2 was “inactive” in each case. Further, the growth inhibition call in the test with S. aureus RN4220 is “inactive”.
Take `C[C@@H]1CCCCO[C@H](CN(C)C(=O)Nc2cccc3ccccc23)[C@H](C)CN([C@@H](C)CO)C(=O)c2cc(NS(C)(=O)=O)ccc2O1`: the cytotoxicity call in the test with HSkMC and with HepG2 was “inactive” throughout. Further, in the test with S. aureus RN4220, the growth inhibition call was “inactive”.
Take `C[C@H]1CN([C@@H](C)CO)C(=O)c2cccc(NC(=O)Nc3ccccc3)c2O[C@@H]1CN(C)S(C)(=O)=O`: the cytotoxicity call with HSkMC and in the test with HepG2 was “inactive” each time. The growth inhibition call with S. aureus RN4220 was “inactive”.
On to `COCC#Cc1ccc2c(c1)O[C@H](CN(C)C(=O)Nc1ccc(OC)cc1)[C@@H](C)CN([C@H](C)CO)S2(=O)=O`, for which the cytotoxicity call in the test on HSkMC and in the test with HepG2 was “inactive” in each case. The growth inhibition call in the test on S. aureus RN4220 is “inactive”.
Turning to `C[C@@H]1CN([C@H](C)CO)C(=O)c2cccc(NS(=O)(=O)c3cccs3)c2O[C@@H]1CN(C)Cc1ccncc1`, the cytotoxicity call in the test on HSkMC and with HepG2 was “inactive” each time. Moreover, the growth inhibition call with S. aureus RN4220 was “inactive”.
As to `COc1ccc(S(=O)(=O)Nc2ccc3c(c2)C(=O)N([C@@H](C)CO)C[C@H](C)[C@H](CN(C)S(=O)(=O)c2ccccc2)O3)cc1`, the cytotoxicity call in the test with HSkMC and in the test on HepG2 was “inactive” each time. Further, in the test with S. aureus RN4220, the growth inhibition call is “inactive”.
On to `C[C@H]1CN([C@@H](C)CO)C(=O)c2cc(NS(=O)(=O)c3cn(C)cn3)ccc2O[C@H]1CN(C)Cc1ccc(C(=O)O)cc1`, for which the cytotoxicity call with HSkMC and in the test with HepG2 was “inactive” in each case. The growth inhibition call in the test with S. aureus RN4220 was “inactive”.
Turning to `CC(C)NC(=O)N(C)C[C@@H]1Oc2ccc(NS(=O)(=O)c3cn(C)cn3)cc2CC(=O)N([C@@H](C)CO)C[C@H]1C`, the cytotoxicity call with HSkMC and with HepG2 was “inactive” throughout. In addition, in the test on S. aureus RN4220, the growth inhibition call was “inactive”.
Take `C[C@H]1CCCCO[C@@H](CN(C)C(=O)Nc2ccc3c(c2)OCO3)[C@@H](C)CN([C@@H](C)CO)C(=O)c2cc(NS(=O)(=O)c3cccs3)ccc2O1`: the cytotoxicity call in the test with HSkMC and in the test with HepG2 was “inactive” each time. For the same compound, in the test on S. aureus RN4220, the growth inhibition call is “inactive”.
Consider `C[C@@H]1CN([C@H](C)CO)C(=O)c2cc(NC(=O)C3CC3)ccc2O[C@@H]1CN(C)S(=O)(=O)c1ccc(Cl)cc1`, for which the cytotoxicity call in the test on HSkMC (human skeletal muscle cells) and in the test with HepG2 was “inactive” in each case. Further, in the test on S. aureus RN4220, the growth inhibition call is “inactive”.
For the compound `COc1cccc(NC(=O)N2C[C@@H](O)COC[C@H]3O[C@H](CC(=O)NCc4ccccc4F)CC[C@@H]32)c1`, the cytotoxicity call in the test with HSkMC and in the test with HepG2 was “inactive” throughout. Further, the growth inhibition call in the test with S. aureus RN4220 was “inactive”.
As to `C[C@@H]1CCCCO[C@H](CN(C)S(=O)(=O)c2ccccc2)[C@H](C)CN([C@@H](C)CO)C(=O)c2cc(NC(=O)C3CCCCC3)ccc2O1`, the cytotoxicity call in the test with HSkMC and with HepG2 was “inactive” each time. Also, the growth inhibition call in the test on S. aureus RN4220 was “inactive”.
Turning to `O=C(CCCCCNC(=O)OCc1ccc([C@H]2[C@H](C(=O)NCc3ccccc3)c3ccccc3C(=O)N2Cc2ccccc2)cc1)NO`, the cytotoxicity call with HSkMC and with HepG2 was “inactive” throughout. Besides, the growth inhibition call with S. aureus RN4220 is “inactive”.

For the origin of these results see the antibiotic and cytotoxicity screens of Wong et al. (2023).
